We go through 109 molecules from PubChem BioAssay AID488969 (Vanderbilt High Throughput Screening Facility, 2010).

The structures appear in SMILES notation. Whole data set: some 110,000 compounds, median “z-score” near -0.1, cut for the highest 2% near 2. This is one part of the list. Calls of active or inactive are those of the source.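 The calls were made as follows: active = z-score in the third read window above 3 or below -3; inactive = the rest.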

The test concerns the target Metabotropic glutamate receptor 8 (Rattus norvegicus) (UniProt P70579). Briefly: rat mGluR8 modulators via GIRK flux, primary screen, cell-based, thallium flux, HTS (AID 488969). The following applies: HEK293 rat mGluR8, GIRK (G protein-gated inwardly rectifying potassium channel) thallium flux, FluoZin2; at 10 µM; stronger effect = higher value; submaximal glutamate (EC20) added with thallium.
UniProt P70579, sequence (P70579 whole entry, looked up): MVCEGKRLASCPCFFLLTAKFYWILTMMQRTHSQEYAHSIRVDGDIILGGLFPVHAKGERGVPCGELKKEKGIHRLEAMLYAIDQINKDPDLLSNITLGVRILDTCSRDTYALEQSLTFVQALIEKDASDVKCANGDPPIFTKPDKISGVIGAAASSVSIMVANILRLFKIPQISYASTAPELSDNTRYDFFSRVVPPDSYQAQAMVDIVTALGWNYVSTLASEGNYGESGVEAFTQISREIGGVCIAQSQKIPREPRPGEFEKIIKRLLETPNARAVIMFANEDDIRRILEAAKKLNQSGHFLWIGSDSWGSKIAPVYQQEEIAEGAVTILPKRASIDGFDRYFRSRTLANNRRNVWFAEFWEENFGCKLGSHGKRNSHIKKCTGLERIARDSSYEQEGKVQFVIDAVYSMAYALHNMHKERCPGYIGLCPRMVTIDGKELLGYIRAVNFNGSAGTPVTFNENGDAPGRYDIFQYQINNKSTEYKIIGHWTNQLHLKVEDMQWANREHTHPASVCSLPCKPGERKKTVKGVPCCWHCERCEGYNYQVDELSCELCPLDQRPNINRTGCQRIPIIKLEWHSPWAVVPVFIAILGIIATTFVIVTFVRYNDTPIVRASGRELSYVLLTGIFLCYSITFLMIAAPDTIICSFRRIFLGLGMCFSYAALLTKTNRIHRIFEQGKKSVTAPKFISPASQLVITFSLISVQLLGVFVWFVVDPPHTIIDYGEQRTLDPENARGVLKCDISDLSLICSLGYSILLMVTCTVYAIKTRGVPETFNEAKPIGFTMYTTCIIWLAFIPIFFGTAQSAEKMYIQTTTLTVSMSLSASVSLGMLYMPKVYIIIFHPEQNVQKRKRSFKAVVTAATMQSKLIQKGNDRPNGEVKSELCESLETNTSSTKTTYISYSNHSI
Consider `C/C(=N\NC(=O)Cc1csc(N2CCOCC2)n1)c1ccccc1`, for which the z-score is -0.11.

Consider `COc1ccc(N(CC(=O)N2CCN(Cc3ccc4c(c3)OCO4)CC2)S(C)(=O)=O)cc1OC`, for which the z-score is -0.325.

Molecule `COc1ccc2nc(-c3ccc(N)cc3)[nH]c2c1` displayed a z-score of -0.0289.

Regarding `COc1ccc(-c2ccc3c(N)c(C(=O)c4cccc(OC)c4)sc3n2)cc1`, the z-score is -0.49.

`CCc1ccccc1NC(=O)c1ccc(-n2c(C)ccc2C)cc1` returned a z-score of -0.16.

For `Cc1c(NC(=O)CSc2ccc3c(c2)OCCO3)c(=O)n(-c2ccccc2)n1C`, the z-score amounted to 0.533.

In turn, `Cc1cccc(NC(=O)Nc2ccc3c(c2)N(C)C(=O)CS3)n1` returned a z-score of -0.354.

`O=C(O)c1ccc(-n2c(-c3cc(-c4ccco4)[nH]n3)n[nH]c2=S)cc1` gave a z-score of -0.029.

With `COC(=O)c1ccc(C(=O)NC(=S)Nc2nc3c(s2)CCCC3)cc1`, the z-score is active: 9.51.

Regarding `O=C(CN(Cc1ccccc1F)S(=O)(=O)c1ccc(Cl)cc1)NCCCO`, the z-score was -0.76.

Consider `CCOc1ccc(C2C(C(=O)NC)=C(C)Nc3nc4ccccc4n32)cc1OC` (centres undefined), for which the z-score came out at 0.904.

In turn, `O=C(COc1ncnc2scc(-c3ccc(Cl)cc3)c12)NCc1ccco1` gave a z-score of -0.351.

On to `COc1cc(/C=N/O)cc(Br)c1OS(=O)(=O)c1ccc(C)cc1`, for which the z-score is -0.227.

Regarding `Cc1ccc2cc(CN(Cc3cccs3)Cc3nnnn3CC3CCCO3)c(=O)[nH]c2c1C` (centres undefined), the z-score was -0.542.

The molecule `COc1ccc(/C=N\NC(=O)c2sc(N)nc2C)cc1OC` displayed a z-score of 0.182.

`CCOc1ccc(N2C(=O)CC(SC(=NC)Nc3ccc4c(c3)OCO4)C2=O)cc1` (centres undefined) yielded a z-score of 0.126.

In turn, `Cc1cc(C)cc(N(CC(=O)N2CCOCC2)S(=O)(=O)c2ccccc2)c1` came in with a z-score of -0.336.

Regarding `O=C(NCc1ccc(-c2nc3ccccc3s2)cc1)c1ccco1`, the z-score was -0.111.

As for `CC(C)=C1C(=O)NN(c2ccc(C)c(Cl)c2)C1=O`, the z-score was -0.209.

Consider `COC(=O)c1ccc(CSc2nnc(Nc3ccccc3OC)s2)o1`, for which the z-score is active: 4.01.

In the case of `O=C(COc1cccc(C(F)(F)F)c1)NCCCN1CCCC1=O`, the z-score is -0.747.

Take `Cc1ccc(CN2CC(C(=O)Nc3nnc(SCc4c(Cl)cccc4Cl)s3)CC2=O)cc1` (centres undefined): the z-score was 0.195.

Regarding `O=C(Nc1cccc(O)c1)c1cc(-c2ccco2)on1`, the z-score is -0.103.

`O=C(COc1ncnc2ccccc12)c1ccc2c(c1)OCCO2` had a z-score of 0.493.

The molecule `COC(=O)Cc1ccc(NC(=O)c2ccc(Br)o2)cc1` yielded a z-score of -0.0309.

Molecule `O=C(Nc1cc2nn(-c3ccccc3)nc2cc1Cl)c1ccco1` yielded a z-score of 0.192.

Consider `COc1ccc(C=O)cc1COc1ccccc1F`, for which the z-score is -0.294.

Molecule `S=C(NCCN1CCOCC1)N/N=C/c1c2ccccc2cc2ccccc12` came in with a z-score of 0.702.

Take `COc1ccccc1NC(=O)CN1CCC(C(=O)c2ccc(F)cc2)CC1`: the z-score was -1.26.

`CC(C)(C)NC(=O)C1Cc2ccccc2CN1C(=O)Nc1cccc(Cl)c1` (centres undefined): the z-score is -0.143.

Turning to `Clc1ccc(CSc2nnc([C@@H]3CCCN3)o2)cc1`, the z-score turned out to be 0.791.

The molecule `COc1ccc2oc(=N)c(-c3nnc4n3CCCCC4)cc2c1` registered a z-score of -0.809.

`O=C(NC1CCCCC1)C1CC=CCC1C(=O)OCC(Cl)=C(Cl)Cl` (centres undefined) returned a z-score of -0.34.

For `Cc1ccc(C(=O)O)cc1N1C(=O)c2cccc3cc(Br)cc(c23)C1=O`, the z-score was -0.601.

Molecule `CCOC(=O)/C(=N\NC(=O)c1ccccc1)c1ccccc1` showed a z-score of 1.08.

In turn, `COC(=O)C(Nc1ccccc1Cl)(c1cc(C)c(O)c(C)c1)C(F)(F)F` (centres undefined) gave a z-score of 0.323.

`CCOc1ccccc1-c1cc(C(=O)N/N=C/c2ccc3c(c2)OCO3)c2ccccc2n1` displayed a z-score of -0.832.

The molecule `O=C(Cn1nc(Cc2cccnc2)c2ccccc2c1=O)NCc1ccc(F)cc1` gave a z-score of 0.475.

With `COc1cc(-c2nc3cnccn3c2Nc2c(C)cccc2C)ccc1O`, the z-score is -0.343.

Turning to `CC(=NCCc1c(C)[nH]c2ccc(C)cc12)C1=C(O)CC(c2ccccc2)CC1=O` (centres undefined), the z-score is 0.516.

For `O=C(CSC1=NCCS1)N1CCOCC1`, the z-score worked out at 0.019.

Turning to `O=C(NNC(=O)c1ccccc1Br)c1ccc(Cl)cc1`, the z-score came out at 0.075.

Take `CCN(CC)CCNC(=O)c1c(O)c2c([nH]c1=O)CCCC2`: the z-score was -1.33.

Molecule `S=C(NCc1cccnc1)Nc1cccc2ccccc12` returned a z-score of -0.284.

Molecule `CCCNC(=O)C(NS(=O)(=O)c1ccc2c(c1)c(=O)n(C)c(=O)n2C)c1ccccc1` (centres undefined) gave a z-score of -0.661.

As to `CS(=O)(=O)n1nc(-c2ccccc2)nc1NCc1ccco1`, the z-score was -0.193.

`CCOc1ccc(NC(=O)Nc2cccs2)cc1`: the z-score was 2.37.

The molecule `CCC1=Nc2cc(C(=O)NCCCOC)ccc2Sc2ccccc21` had a z-score of -0.248.

As for `COc1ccc(-c2[nH]c(-c3ccc(C)cc3)nc2SCC(=O)NCc2ccco2)cc1OC`, the z-score turned out to be 0.0225.

Consider `Cc1ccc(CNC(=O)C2CCCN(S(=O)(=O)c3c(C)noc3C)C2)cc1` (centres undefined), for which the z-score is -0.152.

`Cc1ccc2[nH]c(C)c(CCNC(=O)c3cc4cc([N+](=O)[O-])ccc4oc3=O)c2c1` registered a z-score of -1.05.

In the case of `CCC(=O)Nc1c(C#N)c2nc3ccccc3nc2n1C1CCCCC1`, the z-score was -0.149.

Take `O=C(CCC(=O)c1ccccc1)Nc1cccnc1`: the z-score was -0.589.

Molecule `C=C(C(=O)c1ccccc1)C(CC(=O)c1ccccc1)c1ccccc1` (centres undefined) showed a z-score of -0.0913.

Consider `Cc1ccccc1-c1nc(CS(=O)CC(=O)NCc2ccccc2)c(C)o1` (centres undefined), for which the z-score stood at 0.0141.

The molecule `COc1ccc(-c2c(NC(=O)c3ccco3)n(C)c3ccccc3c2=O)cc1` gave a z-score of -0.596.

Molecule `Cc1cc(C(=O)Cn2ncc(Cl)c(Cl)c2=O)c(C)n1CC(F)(F)F` had a z-score of -0.573.

For the molecule `Cc1ccc(S(=O)(=O)N(CC(=O)N/N=C/c2ccc(F)cc2)c2cccc3cccnc23)cc1`, the z-score was -0.303.

`CC(NC(=O)c1ccc(Cl)s1)C1CCCO1` (centres undefined) gave a z-score of 0.0804.

Take `Cc1ccsc1/C=N/NC(=O)c1c[nH]c2ccccc12`: the z-score came out at 0.29.

In turn, `CCN1CCN(C(=O)c2ccc3c(=O)n(CCC4=CCCCC4)c(=O)[nH]c3c2)CC1` gave a z-score of -0.941.

As to `O=C(CSc1nnc(Cc2cccs2)n1-c1ccccc1)NC1CCCCC1`, the z-score was -0.101.

Consider `CC(C)(C)SCCNC(=O)COc1ccc(Cl)cc1`, for which the z-score is -0.647.

The molecule `Cc1ccccc1C(=O)N=c1sccn1C` showed a z-score of -0.187.

As to `COc1ccc2c(C)cc(SCc3c(C)noc3C)nc2c1`, the z-score is -0.0336.

`Cc1ccc(-c2nc(CS(=O)CC(=O)NCCC(C)C)c(C)o2)cc1` (centres undefined) yielded a z-score of 0.18.

For `C=CCN1C(=O)C2(C(C#N)=C(N)Oc3n[nH]c(CCC)c32)c2ccccc21` (centres undefined), the z-score is 0.176.

Turning to `Cc1ccc(NC2(c3nnnn3-c3c(C)cccc3C)CCCCC2)cc1`, the z-score amounted to 0.238.

The molecule `CN1CCN(S(=O)(=O)c2ccc(NC(=O)Cc3cccs3)cc2)CC1` came in with a z-score of -0.217.

For the molecule `Cc1cc(C)n(-c2ccc(C(=O)OCC(=O)Nc3ccc(Cl)cc3[N+](=O)[O-])cc2)n1`, the z-score was -0.362.

Consider `O=c1c2ccccc2oc2nc(C3CCCCC3)n(Cc3ccco3)c(=O)c12`, for which the z-score is -1.35.

In turn, `CCCCNC(=O)CCNS(=O)(=O)c1ccc(Br)cc1` registered a z-score of -0.0937.

In the case of `Cc1cc(NC(=O)c2cn(C3CCCCC3)c(=O)c3c2c2ccccc2n3C)no1`, the z-score is 0.0883.

In turn, `COc1ccccc1OCCOCCOc1ccc(C)cc1[N+](=O)[O-]` yielded a z-score of 0.687.

The molecule `Cc1cccc(NC(=O)C2C3C=CC(C4CC34)C2C(=O)O)c1` (centres undefined) came in with a z-score of 0.262.

For `NS(=O)(=O)c1ccc(NC(=S)NCc2ccc(Cl)cc2)cc1`, the z-score was 0.225.

`O=C(OCc1cccs1)c1ccccc1NS(=O)(=O)c1ccc2c(c1)OCCO2` came in with a z-score of -0.267.

In the case of `COc1ccc(C2/C(=C(/O)c3ccccc3)C(=O)C(=O)N2CCO)cc1` (centres undefined), the z-score is -0.0153.

`CCCCP(=O)(CCCC)Cc1ccccc1` had a z-score of -0.216.

`Cc1ccc(S(=O)(=O)NC(=O)N2CCC(C)CC2)cc1` gave a z-score of 1.01.

Molecule `O=C(CCSc1ccc(Cl)cc1)N1CCN(c2ncccn2)CC1` registered a z-score of -0.0871.

`CCOC(=O)c1ccc(N=C2NC(=O)CS2)cc1` displayed a z-score of 0.412.

For `O=C(CSCC(=O)NC1CC1)Nc1ccc2ccccc2c1`, the z-score came to 0.16.

The molecule `O=C(OCC(=O)c1cccs1)C1=COCCO1` registered a z-score of 1.34.

Consider `S=C(c1ccc2c(c1)OCO2)N1CCCC1`, for which the z-score is 0.134.

Molecule `COCCNC(=O)c1ccc2c(c1)nc(C)n2-c1cccc(F)c1` registered a z-score of -0.117.

Molecule `Cn1c(=O)n(CCc2ccccc2)c(=O)c2c1nc1n2CCCN1c1ccccc1` gave a z-score of -0.316.

As to `CCCCCCCCCCOC(=O)C[N+](C)(C)C/C=C(/C)Cl`, the z-score was -0.157.

As for `Cc1cccn2c(/C=N/OCc3cccc(F)c3)c(-c3ccc(Cl)cc3)nc12`, the z-score came to 0.118.

On to `Cc1ccc(/C=N\NC(=O)C2CN(S(=O)(=O)c3ccccc3)CCN2S(=O)(=O)c2ccccc2)cc1` (centres undefined), for which the z-score is -0.151.

With `CCCN1C(=O)/C(=C/c2ccco2)SC1=Nc1ccc(OC)cc1`, the z-score was -0.105.

With `COc1ccccc1C1C(C#N)=C(N)Oc2cc(C)n(CCCn3ccnc3)c(=O)c21` (centres undefined), the z-score was -0.181.

`C=CCn1c(SCC(=O)Nc2sc(C)c(C)c2C(=O)OCC)nnc1-c1sc(N)nc1C`: the z-score is active: -3.37.

`O=C(Oc1ccc(-c2cnc3ccccc3n2)cc1)c1cc([N+](=O)[O-])ccc1Cl` came in with a z-score of -1.5.

`CC1CCN(C(=O)c2cc3nc(C4CC4)cc(C(F)(F)F)n3n2)CC1`: the z-score was -0.466.

`O=C(Nc1ccc(Cl)cc1)OCc1cc(-c2ccccc2Cl)on1` returned a z-score of -0.0883.

`CCC(=O)Nc1ccc(NC(=O)/C=C/c2ccc(Cl)cc2)cc1` showed a z-score of -0.359.

`O=C(/C=C/c1cccc(Br)c1)NCC1CCCCC1` came in with a z-score of -0.276.

The molecule `CN(C)CCNc1oc(COc2ccc(-c3ccccc3)cc2)nc1C#N` returned a z-score of 2.06.

On to `CC1CC(=S)Nc2ccccc2N1Cc1ccccc1` (centres undefined), for which the z-score stood at 1.32.

Turning to `Cc1cc(Cl)c(S(=O)(=O)N2CCN(c3ccc(F)cc3)CC2)cc1OCC(N)=O`, the z-score was -0.206.

For `O=C(COc1ccc2c(c1)OCO2)Nc1ccc2c(c1)oc1ccccc12`, the z-score came out at 0.219.

`Cc1cc(Oc2nc3c(C)cccn3c(=O)c2/C=C(\C#N)S(=O)(=O)c2ccccc2)ccc1Cl` came in with a z-score of -0.183.

Regarding `Cc1ccc(N=Cc2nc(/C=C/c3cccc([N+](=O)[O-])c3)oc2O)cc1`, the z-score was -0.0691.

With `Cc1cc(C)nc(SCc2nc3ncccn3c2Br)n1`, the z-score was -0.841.

`Cc1nn(C(=O)c2ccco2)c(C)c1Sc1ccc(Br)cc1` had a z-score of 0.0785.

The molecule `C(=N\Nc1nc(-c2ccccc2)cs1)/c1ccco1` registered a z-score of 0.0633.

As for `O=C(NCc1cccc(F)c1)c1ccc(N2C(=O)Cn3c(cc4sccc43)C2=O)cc1`, the z-score is -0.123.

On to `COc1ccc(CCNC(=O)c2cc(C(=O)c3cc(Cl)ccc3O)cn(CCc3ccc(OC)cc3)c2=O)cc1`, for which the z-score came to 0.492.
